Assay results: PubChem BioAssay AID1347073 (National Center for Advancing Translational Sciences (NCATS), 2019)
In all, about 45,000 compounds went through this assay and about 200 (0.44%) were called active. Another 7% or so got no clear call; they are omitted. Calls come from the whole dose curve; as a rule, active = well fitted activation curve with a large enough effect; inconclusive = small, poorly fitted or top-dose-only effect; inactive = no such curve, though single readings can be large or run the other way. This is one part of the list.

Experiment: qHTS of TDP-43 Inhibitors: NCGC Sytravon Library Screen; note: 0% is about no effect; nearly all actives have a fitted effect of over 55% in size
Conditions: yeast TDP-43 toxicity rescue, BacTiter-Glo growth, 24 h; series mostly up to 46.1 µM; growth rescue (activation): at the top concentration
How it was run: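 TDP-43-expressing yeast, pregrown in raffinose, seeded at OD600 0.02 in galactose medium with compound for 24 hr at 30 deg C. Growth read by BacTiter-Glo luminescence, so rescue of toxicity appears as activation.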

SMILES	growth rescue (activation)
CCOC(=O)c1ccc(S(=O)(=O)N2CCN(C(=O)c3nn(C)c(=O)c4ccccc34)CC2)cc1	inactive: 1.88%
CCNC(=O)C1(C)CCCN(Cc2noc(-c3ccccc3OC)n2)C1 (configuration not stated)	inactive: 8.22%
CCc1cccc2c(C(=O)CSc3nncn3-c3ccc(OC)cc3)c[nH]c12	inactive: 4.89%
CCc1nnc(NC(=O)[C@@H](NC(=O)c2ccc(C(C)(C)C)cc2)C(C)C)s1	inactive: -1.3%
S=C(Nc1ccc2nsnc2c1)N1CCCCCC1	inactive: 23.6%
CN1CCN(c2ccc(Cl)cc2NC(=O)/C=C/c2cccc(F)c2)CC1	inactive: 8.11%
CC(C)C(NC(=O)c1ccc(Cl)cc1)C(=O)NCC1CCCO1 (configuration not stated)	inactive: 15.3%
COc1ccc(CN2CC(C(=O)N3CCOCC3)CC2=O)cc1 (configuration not stated)	inactive: 0.497%
COc1ccc(C2CC(=O)n3nc(C45CC6CC(CC(C6)C4)C5)nc3S2)cc1OC (configuration not stated)	inactive: 6.9%
O=C(Cn1nc(C(=O)O)c2ccccc2c1=O)Nc1cccc(Br)c1	inactive: 2.51%
CN1CCN(C(=O)CCn2nc(-c3ccccc3)c3ccccc3c2=O)CC1	inactive: 7.66%
CCc1ccc(OCC(=O)NCCN(C)C)c(Br)c1	inactive: -7.76%
CC(=O)NC(c1ccc(F)c(F)c1)c1nc(-c2ccccc2C)cs1 (configuration not stated)	inactive: 31.7%
CCOc1ccccc1-c1cc(C(=O)N2CCOCC2)c2ccccc2n1	inactive: 8.19%
O=C(N/N=C/c1ccc(-c2ccc([N+](=O)[O-])cc2)o1)[C@H]1C[C@@H]1c1ccccc1	inactive: -1.04%
Cc1ccc(/C=C/C(=O)OCC(=O)Nc2cccc(S(=O)(=O)N(C)C)c2)o1	inactive: 20.1%
Cc1c(NC(=S)Nc2ccccc2)c(=O)n(-c2ccccc2)n1C	inactive: 16.7%
CCOC(=O)C1CCN(C(=O)c2ccc(N(C)S(=O)(=O)c3ccc(OC)cc3)cc2)CC1	inactive: 1.39%
COc1ccc(N(CC(=O)Nc2cccc(C(C)=O)c2)S(C)(=O)=O)cc1OC	inactive: -17.4%
COc1cccc(CN(C(=O)CN2C(=O)c3ccccc3S2(=O)=O)C(C(=O)NCC2CCCO2)c2ccco2)c1 (configuration not stated)	inactive: 11.9%
CC(=O)Nc1cc(-c2ccccc2CN(C)C)cn2c(-c3ccc(F)c(Cl)c3)cnc12	inactive: -2.62%
Cc1ccc(CNC(=O)c2ccccc2N(C)S(C)(=O)=O)cc1	inactive: -9.08%
COc1ccc(CC(=O)OCC(=O)NCc2ccc(F)cc2)cc1	inactive: -4.17%
COc1ccccc1/C=C/C=N/NC(=O)c1cccs1	inactive: 8.6%
O=C(Nc1cccc(OC(F)(F)F)c1)C1Cc2c(-c3ccco3)ccnc2O1 (configuration not stated)	inactive: 15.7%
COc1ccc(S(=O)(=O)Nc2ccccc2OC)cc1NC(=O)Cc1cccs1	inactive: 9.66%

SMILES	growth rescue (activation)
O=S(=O)(c1ccc(S(=O)(=O)N2CCCC2)cc1)N1CCCCC1	inactive: 1.78%
COc1cccc(NC(=O)C2(C)CCN2Cc2ccc(OC(C)C)cc2)c1 (configuration not stated)	inactive: 8.25%
Oc1[nH]c2ccccc2c1N=Nc1c(F)c(F)c(C(F)(F)F)c(F)c1F	inactive: 11.8%
CCN1/C(=C/C(C)=C/c2sc3ccccc3[n+]2CC)Sc2ccccc21	inactive: -95.6%
O=C(CSc1nnc(-c2ccncc2)o1)c1ccc2c(c1)OCCO2	inactive: -2.69%
Cc1ccc(C(=O)Nc2ccc(C(=O)N/N=C/c3cccnc3)cc2)cc1	inactive: -2.2%
Cc1ccc(N=Nc2c(O)[nH]c(=O)[nH]c2=O)cc1S(=O)(=O)Nc1ccc(Br)cc1	inactive: -5.58%
CC(=O)N1CCN(c2ccc(NC(=O)c3cccc(Cl)c3Cl)cc2)CC1	inactive: -23.3%
COc1cccc(/C=C/C(=O)OCC(=O)N2c3ccccc3CC2C)c1OC (configuration not stated)	inactive: 17.1%
Cc1cccc(NS(=O)(=O)c2ccc(NC(=O)N3CCCCC3)cc2)c1	inactive: -0.296%
CCCOc1ccc(CNC(=S)NCc2ccc(OC(C)C)cc2)cc1	inactive: 6.13%
Cc1ccc(S(=O)(=O)NC(C(=O)N2CCOCCOCCOCCOCC2)C(C)C)cc1 (configuration not stated)	inactive: 17%
COc1ccccc1/C=N/NC(=O)c1ccc(Br)cc1	inactive: -0.934%
Nc1c(C(=O)Nc2ccc(OC(F)(F)F)cc2)sc2nc(-c3ccncc3)ccc12	inactive: 15.9%
O=C(COC(=O)c1ccco1)NCc1ccc(F)cc1	inactive: -0.365%
CC(C)(C)C(=O)NC(=S)Nc1cccc(C(=O)O)c1	inactive: 2.57%
N#Cc1ccc(/C=N/NC(=O)c2cc(-c3cccs3)nc3ccccc23)cc1	inactive: 0.849%
COC(=O)c1ccc(C(=O)OC)c(NC(=O)CN(C)Cc2ccc(Cl)c(Cl)c2)c1	inactive: 25.2%
CCOC(=O)N1CCN(C(=O)c2cc3n(n2)C(C(F)(F)F)CC(c2ccc4c(c2)OCO4)N3)CC1 (configuration not stated)	inactive: 17.1%
CCOC(=O)c1ccc(NC(=O)CSc2nc3sc(C(=O)O)c(C)c3c(=O)[nH]2)cc1	inactive: 7.39%
CN(Cc1cn(Cc2ccccc2)nc1-c1ccc2c(c1)OCO2)Cc1nccn1C	inactive: 13.3%
Cn1c(=O)n(C)c2cc(C(=O)O)ccc21	inactive: 32.3%
COC(=O)c1ccc(COC(=O)CNC(=O)C2CCCCC2)cc1	inactive: -0.868%
Cc1cc(C)cc(NC(=O)c2cc3c(=O)n4ccccc4nc3s2)c1	inactive: 12.3%
COc1cc(NC(=O)c2ccccn2)cc(OC)c1OC	inactive: 6.96%
CC(=O)c1cccc(S(=O)(=O)N2CCN(c3nc4cc(C)cc(C)c4cc3C#N)CC2)c1	inactive: 17.2%
